Measurements reported in paper PMC5892938.
The list shows a part of the results. At the low end of the ranking, values are background and their order means little.

molecular target: GST-SBP-SLBP (stem-loop binding protein) (UniProt Q14493); assay: targeted RNA Bind-n-Seq; settings: RBNS binding buffer: 25 mM Tris pH 7.5, 150 mM KCl, 3 mM MgCl2, 0.1% Tween, 0.5 mg/mL BSA, 1 mM DTT; 27 nM protein, 750 pM RNA pool; temperature not stated; high values mean tight binding;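 further: DESeq read counts versus GST-SBP nonspecific binding control pulldown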

**Q.** With “GGUCACGUCUCAAUCAACUCAUUCCCCAGGGAAAUCCCUGGCAUUCUCAACAGCUCGCAGUCAAG” as the sequence, how does the binding signal (log2 fold change) read?
**A.** 0.11

**Q.** For “GGUCACGUCUCAAUCAACUCUAUUCCCAGGGAAAGCCCUGGUUUUUUCAACAGCUCGCAGUCAAG”, which binding signal (log2 fold change) is on record?
**A.** -0.301

**Q.** “GGUCACGUCUCAAUCAACUCUCUCGAGGGGGGGAAAACCCCUUUACCCUCUCAAUCAACAGCUCGCAGUCAAG” was tested. Which binding signal (log2 fold change) did it give?
**A.** -0.078

**Q.** “GGUCACGUCUCAAUCAACUCAUGUCCAGGAGUUUACUCCUGCAAAUUCAACAGCUCGCAGUCAAG” was tested. Which binding signal (log2 fold change) did it give?
**A.** -0.228

**Q.** With “GGUCACGUCUCAAUCAACUCAUCCUCCAGGGAAAACCCUGGUAUACUCAACAGCUCGCAGUCAAG” as the sequence, how does the binding signal (log2 fold change) read?
**A.** -0.172

**Q.** With “GGUCACGUCUCAAUCAACUCUACUUCAGGAGUUUUCUCCUGCUAUCUCAACAGCUCGCAGUCAAG” as the sequence, how does the binding signal (log2 fold change) read?
**A.** 0.155

**Q.** How did the binding signal (log2 fold change) turn out when “GGUCACGUCUCAAUCAACUCUUCCCCAGGAGUUUUCUCCUGUAAAUUCAACAGCUCGCAGUCAAG” was run?
**A.** -0.00206

**Q.** “GGUCACGUCUCAAUCAACUCUAUUUCCAGGGAAAUCCCUGGUUAACUCAACAGCUCGCAGUCAAG” was tested. Which binding signal (log2 fold change) did it give?
**A.** -0.184

**Q.** Which binding signal (log2 fold change) does the source give for “GGUCACGUCUCAAUCAACUCAUUUUCCAGGGAAAUCCCUGGCUAAUUCAACAGCUCGCAGUCAAG” here?
**A.** -0.0278

**Q.** Which binding signal (log2 fold change) does the source give for “GGUCACGUCUCAAUCAACUCAUUUCCCAGGGAAAUCCCUGGUUAUCUCAACAGCUCGCAGUCAAG” here?
**A.** -0.175

**Q.** Which binding signal (log2 fold change) does the source give for “GGUCACGUCUCAAUCAACUCAGGUCCAGGAGUUUACUCCUGCAAAUUCAACAGCUCGCAGUCAAG” here?
**A.** 0.356

**Q.** “GGUCACGUCUCAAUCAACUCUUUUCCCAGGGAAAACCCUGGCUAUUUCAACAGCUCGCAGUCAAG” was tested. Which binding signal (log2 fold change) did it give?
**A.** -0.126

**Q.** Which binding signal (log2 fold change) does the source give for “GGUCACGUCUCAAUCAACUCAAACGAGGGGGGGAAAACCCCUUUACCCUCUCCAUCAACAGCUCGCAGUCAAG” here?
**A.** 0.0119

**Q.** How did the binding signal (log2 fold change) turn out when “GGUCACGUCUCAAUCAACUCAUUAGAGGGGGGGAAAACCCCUUUGCCCUCCAACUCAACAGCUCGCAGUCAAG” was run?
**A.** 0.222

**Q.** With “GGUCACGUCUCAAUCAACUCUCCCGAGGGGGGGAAAACCCCUUUACCCUCACCUUCAACAGCUCGCAGUCAAG” as the sequence, how does the binding signal (log2 fold change) read?
**A.** -0.0133

**Q.** “GGUCACGUCUCAAUCAACUCGUUUUCAGGAGUUUCCUCCUGCUAUUUCAACAGCUCGCAGUCAAG” was tested. Which binding signal (log2 fold change) did it give?
**A.** -0.0573

**Q.** With “GGUCACGUCUCAAUCAACUCCCUAGAGGGGGGGAAAACCCCUUUACCCUCCCAAUCAACAGCUCGCAGUCAAG” as the sequence, how does the binding signal (log2 fold change) read?
**A.** 0.166

**Q.** For “GGUCACGUCUCAAUCAACUCAUCCCCCAGGGAAACCCCUGGUUAACUCAACAGCUCGCAGUCAAG”, which binding signal (log2 fold change) is on record?
**A.** -0.0616

**Q.** With “GGUCACGUCUCAAUCAACUCUUUUCCCAGGGAAACCCCUGGUAUUCUCAACAGCUCGCAGUCAAG” as the sequence, how does the binding signal (log2 fold change) read?
**A.** -0.0682

**Q.** Which binding signal (log2 fold change) does the source give for “GGUCACGUCUCAAUCAACUCAUUUCCAGGAGUUUACUCCUGUUUUCUCAACAGCUCGCAGUCAAG” here?
**A.** 0.134

**Q.** How did the binding signal (log2 fold change) turn out when “GGUCACGUCUCAAUCAACUCAUUCCCCAGGGAAACCCCUGGUAUUUUCAACAGCUCGCAGUCAAG” was run?
**A.** 0.0141

**Q.** “GGUCACGUCUCAAUCAACUCUUCUUCCAGGGAAAUCCCUGGUUAUCUCAACAGCUCGCAGUCAAG” was tested. Which binding signal (log2 fold change) did it give?
**A.** 0.165

**Q.** With “GGUCACGUCUCAAUCAACUCCCUAGAGGGGGGGAAAACCCCUUUGCCCUCAAAAUCAACAGCUCGCAGUCAAG” as the sequence, how does the binding signal (log2 fold change) read?
**A.** 0.0264

**Q.** With “GGUCACGUCUCAAUCAACUCAGUCCCAGGAGUUUCCUCCUGUUUAUUCAACAGCUCGCAGUCAAG” as the sequence, how does the binding signal (log2 fold change) read?
**A.** -0.117

**Q.** Which binding signal (log2 fold change) does the source give for “GGUCACGUCUCAAUCAACUCAAUAGAGGGGGGGAAAACCCCUUUGCCCUCAAAUUCAACAGCUCGCAGUCAAG” here?
**A.** -0.0968

**Q.** For “GGUCACGUCUCAAUCAACUCUAUUCCCAGGGAAACCCCUGGUAUUUUCAACAGCUCGCAGUCAAG”, which binding signal (log2 fold change) is on record?
**A.** -0.0783

**Q.** “GGUCACGUCUCAAUCAACUCAUCUCCAGGAGUUUCCUCCUGCUAUCUCAACAGCUCGCAGUCAAG” was tested. Which binding signal (log2 fold change) did it give?
**A.** 0.00875

**Q.** For “GGUCACGUCUCAAUCAACUCUUCCUCAGGAGUUUACUCCUGUUUACUCAACAGCUCGCAGUCAAG”, which binding signal (log2 fold change) is on record?
**A.** -0.0743

**Q.** For “GGUCACGUCUCAAUCAACUCAGUCCCCAGGGAAACCCCUGGCUAAUUCAACAGCUCGCAGUCAAG”, which binding signal (log2 fold change) is on record?
**A.** -0.148

**Q.** With “GGUCACGUCUCAAUCAACUCAUCCUCAGGAGUUUUCUCCUGCUAUUUCAACAGCUCGCAGUCAAG” as the sequence, how does the binding signal (log2 fold change) read?
**A.** -0.0398

**Q.** For “GGUCACGUCUCAAUCAACUCAUCUCCCAGGGAAAGCCCUGGCUAAUUCAACAGCUCGCAGUCAAG”, which binding signal (log2 fold change) is on record?
**A.** -0.219

**Q.** With “GGUCACGUCUCAAUCAACUCUUCCUCCAGGGAAAGCCCUGGUAAUCUCAACAGCUCGCAGUCAAG” as the sequence, how does the binding signal (log2 fold change) read?
**A.** -0.0682

**Q.** With “GGUCACGUCUCAAUCAACUCUCAAGAGGGGGGGAAAACCCCUUUGCCCUCACCUUCAACAGCUCGCAGUCAAG” as the sequence, how does the binding signal (log2 fold change) read?
**A.** -0.448

**Q.** For “GGUCACGUCUCAAUCAACUCAAUAGAGGGGGGGAAAACCCCUUUGCCCUCCAUAUCAACAGCUCGCAGUCAAG”, which binding signal (log2 fold change) is on record?
**A.** 0.101

**Q.** For “GGUCACGUCUCAAUCAACUCUACUCCCAGGGAAACCCCUGGUUUACUCAACAGCUCGCAGUCAAG”, which binding signal (log2 fold change) is on record?
**A.** 0.0345

**Q.** With “GGUCACGUCUCAAUCAACUCUUCUUCCAGGGAAAGCCCUGGUAUACUCAACAGCUCGCAGUCAAG” as the sequence, how does the binding signal (log2 fold change) read?
**A.** -0.0117

**Q.** For “GGUCACGUCUCAAUCAACUCACAAGAGGGGGGGAAAACCCCUUUACCCUCAACAUCAACAGCUCGCAGUCAAG”, which binding signal (log2 fold change) is on record?
**A.** -0.221

**Q.** “GGUCACGUCUCAAUCAACUCUAUCUCCAGGGAAAUCCCUGGUUAAUUCAACAGCUCGCAGUCAAG” was tested. Which binding signal (log2 fold change) did it give?
**A.** -0.128

**Q.** How did the binding signal (log2 fold change) turn out when “GGUCACGUCUCAAUCAACUCAAUUCCAGGAGUUUACUCCUGUUAACUCAACAGCUCGCAGUCAAG” was run?
**A.** 0.0784

**Q.** How did the binding signal (log2 fold change) turn out when “GGUCACGUCUCAAUCAACUCAUCCUCAGGAGUUUACUCCUGUUAUUUCAACAGCUCGCAGUCAAG” was run?
**A.** 0.0496

**Q.** “GGUCACGUCUCAAUCAACUCUAUUUCAGGAGUUUGCUCCUGCUUAUUCAACAGCUCGCAGUCAAG” was tested. Which binding signal (log2 fold change) did it give?
**A.** -0.106

**Q.** With “GGUCACGUCUCAAUCAACUCUAACGAGGGGGGGAAAACCCCUUUGCCCUCAAAAUCAACAGCUCGCAGUCAAG” as the sequence, how does the binding signal (log2 fold change) read?
**A.** 0.247

**Q.** Which binding signal (log2 fold change) does the source give for “GGUCACGUCUCAAUCAACUCAUCAGAGGGGGGGAAAACCCCUUUGCCCUCAUCAUCAACAGCUCGCAGUCAAG” here?
**A.** -0.291

**Q.** “GGUCACGUCUCAAUCAACUCAACUCCAGGAGUUUACUCCUGCAAACUCAACAGCUCGCAGUCAAG” was tested. Which binding signal (log2 fold change) did it give?
**A.** 0.0253

**Q.** Which binding signal (log2 fold change) does the source give for “GGUCACGUCUCAAUCAACUCAUCCUCCAGGGAAAACCCUGGUAAUCUCAACAGCUCGCAGUCAAG” here?
**A.** 0.137

**Q.** “GGUCACGUCUCAAUCAACUCAGUCCCCAGGGAAAUCCCUGGCAUUCUCAACAGCUCGCAGUCAAG” was tested. Which binding signal (log2 fold change) did it give?
**A.** 0.0335

**Q.** “GGUCACGUCUCAAUCAACUCUUUUUCCAGGGAAACCCCUGGUAUACUCAACAGCUCGCAGUCAAG” was tested. Which binding signal (log2 fold change) did it give?
**A.** 0.445
